Substitutions are numbered along the chain they refer to. No constants are given. Whether binding was seen depends on the method and setting. For part of these data: Binding seen in cells or lysates may run through a third protein. Some results given as binding are weak or reduced against the parent protein; the word gives no strength. For part of these data: Tags and fused reporters may be left off the sequences shown.
T1: endogenous CAS (mouse embryonic fibroblasts) (mouse (endogenous in MEFs)) (UniProt Q61140)
T1 sequence: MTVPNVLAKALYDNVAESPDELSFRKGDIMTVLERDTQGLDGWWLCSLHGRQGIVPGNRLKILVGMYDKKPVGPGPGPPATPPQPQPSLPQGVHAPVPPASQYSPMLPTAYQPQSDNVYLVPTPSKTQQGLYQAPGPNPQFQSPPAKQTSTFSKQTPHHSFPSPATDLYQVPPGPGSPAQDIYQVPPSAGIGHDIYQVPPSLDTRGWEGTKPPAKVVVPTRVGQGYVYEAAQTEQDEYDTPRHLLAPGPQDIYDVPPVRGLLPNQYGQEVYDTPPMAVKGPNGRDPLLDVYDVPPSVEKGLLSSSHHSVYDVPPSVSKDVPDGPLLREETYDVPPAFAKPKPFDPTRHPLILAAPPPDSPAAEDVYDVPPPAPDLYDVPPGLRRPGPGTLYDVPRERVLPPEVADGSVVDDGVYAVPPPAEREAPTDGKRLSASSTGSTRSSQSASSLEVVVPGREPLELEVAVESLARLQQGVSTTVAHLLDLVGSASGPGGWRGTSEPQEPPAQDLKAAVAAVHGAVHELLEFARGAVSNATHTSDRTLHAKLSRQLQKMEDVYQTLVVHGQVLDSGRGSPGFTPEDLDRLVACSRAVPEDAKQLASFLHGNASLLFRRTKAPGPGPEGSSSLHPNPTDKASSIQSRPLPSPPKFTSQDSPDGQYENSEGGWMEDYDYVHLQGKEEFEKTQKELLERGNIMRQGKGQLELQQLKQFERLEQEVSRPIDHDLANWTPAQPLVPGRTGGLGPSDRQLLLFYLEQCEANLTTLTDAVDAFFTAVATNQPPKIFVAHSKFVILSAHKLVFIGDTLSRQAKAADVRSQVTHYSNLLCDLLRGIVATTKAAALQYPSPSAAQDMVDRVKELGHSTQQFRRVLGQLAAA

Protein sequences, listed by entry. Tags and fused reporters are not part of them.
UniProt P34152: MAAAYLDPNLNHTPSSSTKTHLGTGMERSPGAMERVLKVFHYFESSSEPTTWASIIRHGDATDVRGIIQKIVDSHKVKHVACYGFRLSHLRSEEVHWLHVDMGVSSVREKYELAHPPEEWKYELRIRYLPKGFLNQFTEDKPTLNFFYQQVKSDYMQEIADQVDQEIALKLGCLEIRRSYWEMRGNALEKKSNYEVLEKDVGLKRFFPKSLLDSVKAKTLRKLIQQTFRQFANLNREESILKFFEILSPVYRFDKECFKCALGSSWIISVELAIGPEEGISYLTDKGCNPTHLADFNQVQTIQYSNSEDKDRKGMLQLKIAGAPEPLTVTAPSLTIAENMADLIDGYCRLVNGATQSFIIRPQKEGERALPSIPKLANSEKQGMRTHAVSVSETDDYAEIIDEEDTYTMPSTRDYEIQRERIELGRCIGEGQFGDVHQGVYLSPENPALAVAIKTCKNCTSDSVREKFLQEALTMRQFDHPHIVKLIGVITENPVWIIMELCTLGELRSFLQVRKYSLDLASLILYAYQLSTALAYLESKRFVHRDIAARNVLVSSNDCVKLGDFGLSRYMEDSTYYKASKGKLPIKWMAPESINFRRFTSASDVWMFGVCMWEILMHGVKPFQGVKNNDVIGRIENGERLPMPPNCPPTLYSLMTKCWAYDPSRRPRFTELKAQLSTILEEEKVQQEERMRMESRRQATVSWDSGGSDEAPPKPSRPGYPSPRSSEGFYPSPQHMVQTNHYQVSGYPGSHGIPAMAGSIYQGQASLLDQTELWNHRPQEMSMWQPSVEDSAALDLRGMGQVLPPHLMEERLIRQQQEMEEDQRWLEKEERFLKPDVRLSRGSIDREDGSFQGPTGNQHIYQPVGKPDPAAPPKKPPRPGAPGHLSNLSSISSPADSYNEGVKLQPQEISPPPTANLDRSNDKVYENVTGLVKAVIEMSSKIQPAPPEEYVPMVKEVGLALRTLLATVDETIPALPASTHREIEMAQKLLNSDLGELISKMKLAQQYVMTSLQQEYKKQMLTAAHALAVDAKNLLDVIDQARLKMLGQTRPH

T2: GST-fused CAS SH3 domain (mouse) (UniProt Q61140)
T2 sequence: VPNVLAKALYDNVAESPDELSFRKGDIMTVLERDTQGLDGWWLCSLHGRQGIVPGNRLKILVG

T3: GST-fused CAS SH3 domain Y12E (mouse) (UniProt Q61140)
T3 sequence: T2 sequence with Y10E

B1: phage-displayed peptide clone 16 (AHTPPPKPTRPP) (peptide)
peptide: AHTPPPKPTRPP
notes: 12-residue peptide selected from a degenerate library; also called phage clone 16; source: M13 phage stock (Ph.D.-12 Phage Display Peptide Library, New England Biolabs), selected by panning
B2: Flag-DOK7 (protein, UniProt Q18PE1 1-504)
chain: MTEAALVEGQVKLRDGKKWKSRWLVLRKPSPVADCLLMLVYKDKSERIKGLRERSSLTLEDICGLEPGLPYEGLVHTLAIVCLSQAIMLGFDSHEAMCAWDARIRYALGEVHRFHVTVAPGTKLESGPATLHLCNDVLVLARDIPPAVTGQWKLSDLRRYGAVPSGFIFEGGTRCGYWAGVFFLSSAEGEQISFLFDCIVRGISPTKGPFGLRPVLPDPSPPGPSTVEERVAQEALETLQLEKRLSLLSHAGRPGSGGDDRSLSSSSSEASHLDVSASSRLTAWPEQSSSSASTSQEGPRPAAAQAAGEAMVGASRPPPKPLRPRQLQEVGRQSSSDSGIATGSHSSYSSSLSSYAGSSLDVWRATDELGSLLSLPAAGAPEPSLCTCLPGTVEYQVPTSLRAHYDTPRSLCLAPRDHSPPSQGSPGNSAARDSGGQTSAGCPSGWLGTRRRGLVMEAPQGSEATLPGPAPGEPWEAGGPHAGPPPAFFSACPVCGGLKVNPPP
B3: Vinculin (mouse embryonic fibroblasts) (protein, UniProt Q64727 1-1066)
chain: MPVFHTRTIESILEPVAQQISHLVIMHEEGEVDGKAIPDLTAPVAAVQAAVSNLVRVGKETVQTTEDQILKRDMPPAFIKVENACTKLVQAAQMLQSDPYSVPARDYLIDGSRGILSGTSDLLLTFDEAEVRKIIRVCKGILEYLTVAEVVETMEDLVTYTKNLGPGMTKMAKMIDERQQELTHQEHRVMLVNSMNTVKELLPVLISAMKIFVTTKNSKNQGIEEALKNRNFTVEKMSAEINEIIRVLQLTSWDEDAWASKDTEAMKRALASIDSKLNQAKGWLRDPNASPGDAGEQAIRQILDEAGKVGELCAGKERREILGTCKMLGQMTDQVADLRARGQGASPVAMQKAQQVSQGLDVLTAKVENAARKLEAMTNSKQSIAKKIDAAQNWLADPNGGPEGEEQIRGALAEARKIAELCDDPKERDDILRSLGEIAALTSKLGDLRRQGKGDSPEARALAKQVATALQNLQTKTNRAVANSRPAKAAVHLEGKIEQAQRWIDNPTVDDRGVGQAAIRGLVAEGHRLANVMMGPYRQDLLAKCDRVDQLTAQLADLAARGEGESPQARALASQLQDSLKDLKAQMQEAMTQEVSDVFSDTTTPIKLLAVAATAPPDAPNREEVFDERAANFENHSGRLGATAEKAAAVGTANKSTVEGIQASVKTARELTPQVISAARILLRNPGNQAAYEHFETMKNQWIDNVEKMTGLVDEAIDTKSLLDASEEAIKKDLDKCKVAMANIQPQMLVAGATSIARRANRILLVAKREVENSEDPKFREAVKAASDELSKTISPMVMDAKAVAGNISDPGLQKSFLDSGYRILGAVAKVREAFQPQEPDFPPPPPDLEQLRLTDELAPPKPPLPEGEVPPPRPPPPEEKDEEFPEQKAGEVINQPMMMAARQLHDEARKWSSKGNDIIAAAKRMALLMAEMSRLVRGGSGTKRALIQCAKDIAKASDEVTRLAKEVAKQCTDKRIRTNLLQVCERIPTISTQLKILSTVKATMLGRTNISDEESEQATEMLVHNAQNLMQSVKETVREAEAASIKIRTDAGFTLRWVRKTPWYQ
B4: phage-displayed peptide clone 10 (TMTPPPKPPRLI) (peptide)
peptide: TMTPPPKPPRLI
notes: 12-residue peptide selected from a degenerate library; also called phage clone 10; source: M13 phage stock (Ph.D.-12 Phage Display Peptide Library, New England Biolabs), selected by panning

What was measured:
[1] = target: T1, endogenous CAS (mouse embryonic fibroblasts) (mouse (endogenous in MEFs)); assay: co-IP; CAS immunoprecipitated with anti-CAS antibody and protein-A sepharose from lysates of MEFs and of Src-transformed (SrcF) MEFs, with or without 5 µM saracatinib for 3 h; blots for FAK and Vinculin
[2] = target: T2, GST-fused CAS SH3 domain (mouse); assay: ELISA; phage ELISA: GST-CAS SH3 domain or its variants immobilised in 96-well plate (100 µl of 50 µg/ml; 5 µg per well), dilution series of phage stocks in TBS with 0.5% Tween 20, anti-M13-HRP; relative affinities from phage number at 50% saturation; only the target purified
[3] = target: T3, GST-fused CAS SH3 domain Y12E (mouse); assay: as above
[4] = target: T2, GST-fused CAS SH3 domain (mouse); assay: pull-down; 20 µg GST-CAS SH3 variants on glutathione agarose incubated 2 h at 4 °C with lysates of transfected MDA-MB-231 cells; anti-Flag blot; only the target purified
[5] = target: T3, GST-fused CAS SH3 domain Y12E (mouse); assay: as above

Molecule	binding [1]	binding [2]	binding [3]	other results
FAK (mouse embryonic fibroblasts) (from UniProt P34152 1-1052)	binds			
B1		binds	no binding	
B2				binding [4]: binds; binding [5]: no binding
FHAPPSKPPLPK [phage-displayed peptide clone 1 (…)]		binds		
B3	binds			
B4		binds	no binding	

Source: publication PMC5556061 (Scientific Reports, 2017)
